Here are results for 43 molecules from ChEMBL document CHEMBL4888484, “Replenishing the malaria drug discovery pipeline: Screening and hit evaluation of the MMV Hit Generation Library 1 (HGL1) against asexual blood stage Plasmodium falciparum ,using a nano luciferase reporter read-out” (2022).

As a reminder, the % Inhibition is the drop in the measured response relative to a control, in per cent.

Structures are written as SMILES. Hit rate of the full screen: of about 150,000 compounds, about 540 (0.36%) showed an effect of 50% or more. Some of the results follow.

The test system of the assay is Plasmodium falciparum. As to the kind of experiment: Primary screen in NF54 nanoGlo assay, in single point, at 2uM, 72h; a lower Z score goes with more inhibition. The assay is classed as functional, Erythrocyte. The note with it: timepoint 72 hour.
For the molecule `CN(CC1(O)CCCC1)C(=O)C1CCN(C2CC2)CC1`, the “% Inhibition” value is -5% and the Z score came out at 0.74.
For `Cc1ccnc([C@@H](NC(=O)c2c[nH]c3cc(C)nn3c2=O)C2CC2)c1`, the “% Inhibition” value is -2% and the Z score came out at 0.39.
As for `COc1ccc(OC)c(NC(=O)c2cccc(-c3nc(-c4ccc(F)cc4)no3)c2)c1`, the “% Inhibition” value is -8% and the Z score amounted to 0.95.
Take `Cc1nc(C(C)(C)N)n(-c2ccc(C(C)C)cc2)n1`: the “% Inhibition” value was -14% and the Z score is reported as 2.27.
Taken in the same sequence, the figures for `Cc1ccc(CNCc2ccc(N3CCCC3=O)cc2)o1` were -18% and 1.5.
For `CCOC(=O)[C@@H](c1cc(Cl)cc(Cl)c1)N(CC)Cc1nc(CC)no1` the same measures were 1% and -0.22.
With `Cc1ncccc1Oc1ncnc(N2CC[C@H](N3CCOCC3)[C@@H](O)C2)c1C`, the “% Inhibition” value is reported as -4% and the Z score worked out at 0.51.
Consider `Cc1ccc(CN(CC2CC2)S(=O)(=O)c2csc(C(=O)O)c2)cn1`, for which the “% Inhibition” value is on record as -5% and the Z score is 0.76.
Regarding `CC(C)n1cc(Br)cc1C(=O)N1CCC[C@@H]1CN`, the “% Inhibition” value is reported as -7% and the Z score was 1.
For `C[C@@]1(C(=O)NC2CCCCCC2)Cn2nc(C3CC3)cc2C(=O)N1Cc1cccc(Cl)c1` the same measures were -5% and 0.8.
Take `CCCn1c(=O)c(C(=O)N2CCC[C@H](C(=O)OCC)C2)nn(-c2cccc(C)c2)c1=O`: the “% Inhibition” value is -15% and the Z score is recorded as 1.46.
For `C=CCNC(=O)c1csc(-c2ccc(OCc3ccccc3)cc2Cl)n1` the same measures were 10% and -1.08.
For `Cc1cc(N2CC(Cn3cccn3)C2)ncn1`, the “% Inhibition” value is listed as -15% and the Z score came out at 1.71.
For `CN(CC(=O)Nc1ccccc1C(F)(F)F)c1ccn(C)n1` the same measures were 0% and -0.01.
Taken in the same sequence, the figures for `Cc1cc(COc2cc(OCc3cc(C)on3)c(Cl)cc2Cl)no1` were 0% and 0.
With `NS(=O)(=O)c1ccc(C(=O)N(CC2CC2)CC2CC2)cc1F`, the “% Inhibition” value is given as -4% and the Z score came to 0.61.
For the molecule `CC(=O)N1CCC(C(=O)Nc2nc(-c3ccc(C)cc3)c(-c3ccc(C)cc3)s2)CC1`, the “% Inhibition” value is -6% and the Z score was determined as 0.87.
For the molecule `CCOc1ccc(CN2CC[C@H](N(C)CCc3ccccn3)[C@@H](O)C2)cc1Cl`, the “% Inhibition” value is recorded as -17% and the Z score turned out to be 2.49.
`O=C(NCCN1CCCCC1)[C@H]1CN(S(=O)(=O)c2cccnc2)CC12CCCCC2`: the “% Inhibition” value stood at 34% and the Z score is recorded as -3.85.
For `CCS(=O)(=O)Oc1ccccc1CN(CC1CC1)C(=O)c1ccccc1F`, the “% Inhibition” value is -16% and the Z score worked out at 1.65.
As for `Cc1ccnn1CCC(=O)N1CCC[C@H](c2nnc3ccccn23)C1`, the “% Inhibition” value stood at 9% and the Z score is given as -1.22.
Regarding `Cc1cc(-c2nc3ccccc3[nH]2)c(C)n1Cc1cccnc1`, the “% Inhibition” value is given as 7% and the Z score is recorded as -1.01.
For `NC(=O)C1C2CCCC2CN1C(=O)C1CCC2CCCCC2C1` (stereo unspecified) the same measures were -14% and 2.2.
As for `Cc1ccccc1[C@H]1C[C@@H](O)[C@@H](O)[C@@H]1NC(=O)C(C)C`, the “% Inhibition” value is on record as -5% and the Z score came out at 0.88.
In the case of `Cc1cc(NC(=O)[C@@H]2COCC(=O)N2Cc2cccs2)no1`, the “% Inhibition” value is -10% and the Z score turned out to be 1.72.
`Cc1nc(C)c(C(=O)Nc2ccccc2CN2CCc3ccccc32)o1`: the “% Inhibition” value is recorded as -4% and the Z score is listed as 0.49.
For `CCc1nc2c(c(=O)n1CC(=O)Nc1ccccc1OC)CN(Cc1ccccc1)CC2`, the “% Inhibition” value was -10% and the Z score is on record as 1.6.
As to `O=C(c1ccc(S(=O)(=O)Nc2cccc(C(F)(F)F)c2)cc1)N1CCOCC1`, the “% Inhibition” value is listed as 10% and the Z score is on record as -0.96.
Regarding `Cn1cc(CCC(=O)Nc2cnccn2)cn1`, the “% Inhibition” value is listed as -9% and the Z score worked out at 0.79.
Turning to `c1ccc(C2CCN(Cc3ccc4nccnc4c3)CC2)nc1`, the “% Inhibition” value was 6% and the Z score was -0.8.
As to `CC#CCN(C)C(=O)C1CCC2(CC1)NC(=O)NC2=O` (stereo unspecified), the “% Inhibition” value is reported as 1% and the Z score is -0.17.
Taken in the same sequence, the figures for `Cc1ccc2sc(CN3C(=O)CN(C)C3=O)nc2c1` were -14% and 2.58.
As to `Cc1cc(N2C[C@@H](CN3CCC(O)CC3)[C@@H](CO)C2)nc(-c2ccccc2)n1`, the “% Inhibition” value was -13% and the Z score is listed as 1.39.
As for `Brc1ccc(-c2noc(CCc3cscn3)n2)o1`, the “% Inhibition” value is listed as -12% and the Z score came out at 1.54.
In the case of `Cc1ccnc(NCCc2cncn2C)n1`, the “% Inhibition” value is -15% and the Z score stood at 2.04.
For `CCN(CC)S(=O)(=O)c1ccc(N2CCOCC2)c(NC(=O)CCC2CCCCC2)c1` the same measures were -11% and 1.48.
Take `CN1CCNC(=O)C12CCN(Cc1cccc(O)c1)CC2`: the “% Inhibition” value is on record as 1% and the Z score is on record as -0.16.
`Cc1ccc(NC(N)=NCc2ccccn2)cc1C`: the “% Inhibition” value was -8% and the Z score is 0.91.
Taken in the same sequence, the figures for `CCc1nc(CC)n(Cc2nnc(-c3ccc(C#N)cc3)o2)n1` were -15% and 1.47.
Take `Cc1nnc(NCC(=O)NCc2ccco2)c(C#N)c1C`: the “% Inhibition” value was -9% and the Z score stood at 1.7.
Taken in the same sequence, the figures for `C[C@H]1CNC[C@@H]1Cc1nc(C(C)(C)c2ccccc2Cl)no1` were -3% and 0.37.
For `CCc1cnc(NC(=O)c2cc(C(F)(F)F)c[nH]c2=O)s1` the same measures were -2% and 0.18.
`COc1ccc(OCc2nc([C@@H]3CCCO3)n(C3CCCCC3)n2)cc1`: the “% Inhibition” value is listed as -12% and the Z score is 1.84.
